According to the BET-seq Pho4 binding data (Le et al. 2018):
The list shows a part of the results. The energies were worked out here from pooled read counts, against the library average; single values are noisy.

Each sequence was assayed against T1, Pho4 (S. cerevisiae) (UniProt P07270) (assay: relative binding free energy (BET-seq); higher = weaker binding). Settings: reference: library average.
T1 sequence: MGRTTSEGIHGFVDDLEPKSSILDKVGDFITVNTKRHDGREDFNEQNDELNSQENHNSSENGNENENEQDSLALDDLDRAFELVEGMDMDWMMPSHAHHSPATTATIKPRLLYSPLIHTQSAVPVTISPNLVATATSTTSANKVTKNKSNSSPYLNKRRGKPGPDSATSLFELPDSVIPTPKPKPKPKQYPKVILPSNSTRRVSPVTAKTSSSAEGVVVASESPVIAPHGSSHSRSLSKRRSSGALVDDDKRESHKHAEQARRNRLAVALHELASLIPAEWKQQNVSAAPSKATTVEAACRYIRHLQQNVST

Sequence	relative binding free energy
ATATGCACGTGTTGTT	-0.13 kcal/mol
CATTGCACGTGATGGG	0 kcal/mol
CGTTGCACGTGGCGCG	-0.03 kcal/mol
ACATTCACGTGGAGGG	0.27 kcal/mol
AGAAACACGTGGCGTG	-0.02 kcal/mol
CTGTTCACGTGGTGAT	0.21 kcal/mol
TTTATCACGTGCTTTT	0.17 kcal/mol
GTTCTCACGTGTGTTC	0.42 kcal/mol
GGTCGCACGTGGGGCG	-0.17 kcal/mol
TATGTCACGTGTCATA	0.04 kcal/mol
TATGGCACGTGGTGGG	-0.11 kcal/mol
AGTATCACGTGGTTGT	0.02 kcal/mol
CTTGCCACGTGGGGGG	-0.41 kcal/mol
ATAGGCACGTGTTATG	-0.12 kcal/mol
CTAGTCACGTGCGGGT	-0.06 kcal/mol
GTTCTCACGTGTCGTG	0.11 kcal/mol
AGGAGCACGTGTGTCG	-0.14 kcal/mol
TATATCACGTGGGAAG	0.22 kcal/mol
TGGTTCACGTGATCTT	0.45 kcal/mol
TGACTCACGTGAGTTG	0.35 kcal/mol
AGGTTCACGTGTAAGC	0.42 kcal/mol

Sequence	relative binding free energy
CTTGGCACGTGAGGGA	0.06 kcal/mol
GCAAGCACGTGGTTTG	0.06 kcal/mol
TTAGGCACGTGCGTAA	-0.18 kcal/mol
TGAGGCACGTGTCGGC	-0.11 kcal/mol
GTATACACGTGGTAGT	-0.09 kcal/mol
TGGGTCACGTGGAGAG	0.23 kcal/mol
AGGGTCACGTGACAGA	0.2 kcal/mol
GGGTTCACGTGTCGGA	0.2 kcal/mol
GTCTGCACGTGGGGGC	-0.09 kcal/mol
GGATGCACGTGAAGGC	0.19 kcal/mol
ATGTCCACGTGTTATG	-0.04 kcal/mol
CTAAGCACGTGGTGGG	0.05 kcal/mol
GACGACACGTGGGCGG	0.07 kcal/mol
GTAGCCACGTGGTGTA	-0.14 kcal/mol
TTGGTCACGTGTTAGC	0.02 kcal/mol
TGGGTCACGTGAGGTA	0.28 kcal/mol
GTTTCCACGTGGGTTA	-0.17 kcal/mol
GGGAGCACGTGGTGAC	-0.15 kcal/mol
TCTTTCACGTGTGAGA	0.33 kcal/mol
TGTGACACGTGCGGTT	-0.08 kcal/mol
GGTATCACGTGGAAGT	0.35 kcal/mol

Sequence	relative binding free energy
GTCTTCACGTGGGTAT	0.22 kcal/mol
AGTATCACGTGTTGCG	0.02 kcal/mol
AAGTGCACGTGTTCGG	0.06 kcal/mol
TTAATCACGTGAGAAT	0.35 kcal/mol
TTTTGCACGTGATGTA	0.11 kcal/mol
TGAATCACGTGATGGG	0.42 kcal/mol
ATAAGCACGTGAGTGG	0.21 kcal/mol
TAGGGCACGTGAGTAT	0.21 kcal/mol
AAGCGCACGTGGGTGT	-0.29 kcal/mol
TATGTCACGTGCAGGG	0.11 kcal/mol
CTATTCACGTGCGGGT	0.22 kcal/mol
GGAGTCACGTGTGGGT	0.32 kcal/mol
AAGGCCACGTGTGGGG	-0.06 kcal/mol
GACGTCACGTGTTGGA	0.28 kcal/mol
GGTTTCACGTGATTCT	0.29 kcal/mol
GACGTCACGTGGAGGT	0.2 kcal/mol
GGTAGCACGTGGCGTT	-0.1 kcal/mol
GTTAGCACGTGTATTC	0.07 kcal/mol
GGTAACACGTGGGGGT	-0.06 kcal/mol
GTATTCACGTGGTCGA	0.28 kcal/mol
TGGGTCACGTGCCAGT	-0.08 kcal/mol
